Measurements reported in the supplement of paper PMC9433436.
± gives the standard deviation of the averaged measurements. In all, about 4,100 sequences were measured (“relative kcat/Km (krel) vs genomic leader AAAGAU”: median about 1.7, highest 2% from about 6.5 on). The entries are a selection whose mix differs from that of the whole data set.

Molecular target: T1, E. coli RNase P holoenzyme (M1 P RNA + rnpA protein) (UniProt P0A7Y8)
T1 sequence: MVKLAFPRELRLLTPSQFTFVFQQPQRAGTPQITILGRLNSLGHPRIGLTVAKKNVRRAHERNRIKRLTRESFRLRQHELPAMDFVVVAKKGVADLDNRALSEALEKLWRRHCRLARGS
Experiment: relative kcat/Km (krel) vs genomic leader AAAGAU (relative (reference leader = 1)); higher = faster RNase P cleavage
Experimental: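 HTS-Kin: a pool of ptRNA-Met (21C construct) with all 4096 combinations of 5' leader nucleotides N(-6) to N(-1) was processed in vitro by E. coli RNase P (P RNA + rnpA/C5 protein) under multiple-turnover conditions at 37 C, pH 8, 17.5 mM MgCl2. Residual substrate was Illumina-sequenced at several fractions reacted, and relative kcat/Km (krel) was computed by internal competition kinetics, calibrated to the genomic leader (AAAGAU = 1). The listed hexamer is the varied N(-6)..N(-1) leader (DNA letters), and it sits between a fixed 5' stem-loop flank (GCAUGCACGAAAGUGCGUGCUAUGAA) and the mature tRNA-Met starting GGCUACGUAGCUCAGUUGG. Two technical replicates are averaged.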

[1] = fraction of substrate reacted: ~9-10% (9.79% repeat 1, 9.1% repeat 2)
[2] = fraction of substrate reacted: ~13-16% (15.68% repeat 1, 13.17% repeat 2)
[3] = fraction of substrate reacted: ~26-29% (28.66% repeat 1, 26.4% repeat 2)

Sequence	relative kcat/Km [1]	relative kcat/Km [2]	relative kcat/Km [3]
CTCCAT	4.25 ± 0.86	5.67 ± 1.3	8.48 ± 4
TGGAAA	1.63 ± 1.1	0.838 ± 0.78	1.61 ± 0.29
GGCCTC	1.28 ± 0.39	0.933 ± 0.5	1.94 ± 0.76
TACAGG	–	–	1.7 ± 0.63
CCACTA	2.04 ± 0.79	0.737 ± 0.36	1.25 ± 0.33
CGTATT	2.49 ± 0.91	3.75 ± 0.57	4.61 ± 1.8
TAAGCT	0.634 ± 0.17	1.15 ± 1.1	1.46 ± 0.35
TAAAGG	–	–	0.833 ± 0.34
GTGATG	2.12 ± 1.9	–	1.09 ± 0.41
TAGACC	1.49 ± 0.094	2.19 ± 0.16	2.67 ± 0.87
GCAGCA	1.21 ± 0.31	0.509 ± 0.46	0.85 ± 0.26
TTTTCA	2.11 ± 1.6	1.86 ± 0.42	2.97 ± 0.84
TATGCT	0.898 ± 0.54	1.14 ± 0.41	1.43 ± 0.56
TACGGT	–	–	3.36 ± 2.5
TTCAAA	4.87 ± 2.9	–	–
GATCCA	1.34 ± 0.85	0.89 ± 0.35	1.72 ± 0.51
AAGCGA	1.73 ± 0.67	1.44 ± 1.2	2.34 ± 0.72
CATATT	1.98 ± 1.2	2.4 ± 0.37	3.79 ± 1.4
ATAGGC	–	–	1.49 ± 1.3
CGCTCC	3.25 ± 0.17	3.29 ± 0.4	4.58 ± 1.6
TAAAAG	1.83 ± 1.3	0.854 ± 0.14	2.39 ± 0.65
TCATAC	4.3 ± 0.51	5.72 ± 0.91	–
ACCCGT	1.55 ± 1.5	1.9 ± 1.9	1.96 ± 1.4

Sequence	relative kcat/Km [1]	relative kcat/Km [2]	relative kcat/Km [3]
CATGCG	–	0.367 ± 0.28	0.698 ± 0.016
GCGCTA	–	0.59 ± 0.043	1.17 ± 0.39
AGCACT	1.86 ± 0.89	–	2.23 ± 0.84
ACGTCA	1.77 ± 0.7	2.15 ± 0.55	2.79 ± 1.2
AATATC	1.63 ± 0.61	1.67 ± 0.073	2.18 ± 0.7
GTATAC	3.66 ± 2.2	4.72 ± 0.97	6.65 ± 2.7
GATCTC	1.37 ± 0.23	1.37 ± 0.5	2.07 ± 0.39
GTCTTG	2.05 ± 1.9	1.96 ± 0.21	3.58 ± 0.69
GTAAAA	1.7 ± 1.3	1.99 ± 0.54	2.88 ± 0.32
AAGGCT	–	–	1.05 ± 0.71
CACGCA	2.14 ± 0.48	3.31 ± 1.5	4.91 ± 1.6
TTAGCA	0.98 ± 0.024	1.55 ± 0.12	2.26 ± 1.1
CGATCT	1.67 ± 1.1	2.87 ± 1.8	4.11 ± 1.9
TAAACG	1.36 ± 1.2	–	1.52 ± 0.4
ATCTAT	3.93 ± 1.4	5.38 ± 1	–
TATCAG	2.12 ± 2.1	1.76 ± 0.033	3.25 ± 1.1
GGGCCT	0.773 ± 0.081	0.888 ± 0.77	1.13 ± 0.44
CTGAGA	–	1.85 ± 0.35	2.05 ± 0.27
CAACTA	1.32 ± 0.84	0.424 ± 0.32	1.1 ± 0.37
CAAAGA	2.63 ± 1.1	1.78 ± 0.057	3.03 ± 0.49
CTTGTG	–	–	0.748 ± 0.26
TGGTTT	–	–	1.22 ± 0.7
ATTGAC	2.74 ± 0.31	3.01 ± 0.55	4.33 ± 1.6

Sequence	relative kcat/Km [1]	relative kcat/Km [2]	relative kcat/Km [3]
CTTGAG	1.11 ± 0.75	–	1.36 ± 0.41
GGCGAA	2.38 ± 1.1	2.86 ± 0.39	3.85 ± 1.4
TTACTA	1.45 ± 1.2	1.28 ± 0.5	2.33 ± 0.77
TGCTAC	2.42 ± 1.5	2.16 ± 0.89	4.62 ± 2.6
CCTGAC	1.9 ± 0.12	2.19 ± 0.76	3.67 ± 1.8
ATCGCC	4.35 ± 0.56	5.34 ± 2	7.69 ± 3
CTATGA	3.21 ± 0.41	3.33 ± 0.2	5.58 ± 1.9
TAGAGC	0.945 ± 0.65	1.76 ± 0.038	2.28 ± 0.22
CGAGTT	0.554 ± 0.28	0.719 ± 0.2	–
GTCACG	–	1.84 ± 0.86	3.97 ± 0.54
ATGATA	1.42 ± 0.71	0.856 ± 0.28	1.7 ± 0.84
ATAACC	1.4 ± 0.97	1.05 ± 0.42	1.37 ± 0.052
TTAACG	0.394 ± 0.1	–	0.816 ± 0.016
AATAAG	–	0.98 ± 0.26	2.36 ± 0.67
CGGAAT	0.343 ± 0.096	0.823 ± 0.49	1.11 ± 0.047
GCTTTT	1.48 ± 0.18	2.05 ± 0.041	2.78 ± 1
GGCCAG	–	0.781 ± 0.14	2.04 ± 0.3
TAGACA	1.73 ± 0.61	2.047 ± 0.0097	3.05 ± 1.7
GGGCGC	0.727 ± 0.11	0.511 ± 0.34	1.24 ± 0.14
ATATCC	2.49 ± 2.1	2.13 ± 0.23	2.56 ± 0.59
GGGTCA	–	–	0.848 ± 0.71
